Counter-ions that a name gives are not always drawn. At least one structure is not confirmed: it was looked up by name or label, or the drawing left a doubt.
System: human and animal plasma
Assay: Determination of anticoagulatory activity: activated partial thromboplastin time (aPTT) in plasma
Settings: concentration of test substance which brings about a 1.5-fold extension of the aPTT; plasma species not given
Experimental: The anticoagulatory activity of the test substances is determined in vitro in human and animal plasma (for example mouse, rat, rabbit, pig and dog plasma). To this end, blood is drawn off in a mixing ratio of sodium citrate/blood of 1:9 using a 0.11 molar sodium citrate solution as receiver. Immediately after the blood has been drawn off, it is mixed thoroughly and centrifuged at about 4000 g for 15 minutes. The supernatant is pipetted off.
The activated partial thromboolastin time (aPTT) is determined in the presence of varying concentrations of test substance or the corresponding solvent using a commercial test kit (C. K. Prest from Diagnostica Stago). The test compounds are incubated with the plasma and the PTT reagent (cephalin, kaolin) at 37° C. for 3 minutes. Coagulation is then started by addition of a 25 mM aqueous calcium chloride solution, and the time when coagulation occurs is determined. The concentration of test substance which brings about a 1.5-fold extension of the aPTT is determined.

Row | Structure (SMILES) | aPTT [µmol/L]
1 | Cc1cc(C(=O)NC2CCNCC2)ccc1-c1ccc(C[C@H](NC(=O)[C@H]2CC[C@H](CN)CC2)C(=O)Nc2ccc(-c3nnc(CC(C)C)[nH]3)cc2)cc1 [Example 58, 4′-[(2S)-2-({[trans-4-(Aminomethyl)cyclohexyl]carbonyl}amino)-3-{[4-(3-isobutyl-4H-1,2,4-triazol-5-yl)phenyl]amino}-3-oxopropyl]-2-methyl-N-(piperidin-4-yl)biphenyl-4-carboxamide hydrochloride] | 0.51
2 | Cc1cc(C(=O)N[C@@H]2CCCCNC2=O)ccc1-c1ccc(C[C@H](NC(=O)[C@H]2CC[C@H](CN)CC2)C(=O)Nc2ccc(-c3nn[nH]n3)cc2)cc1 [Example 64, 4′-[(2S)-2-({[trans-4-(Aminomethyl)cyclohexyl]carbonyl}amino)-3-oxo-3-{[4-(2H-tetrazol-5-yl)phenyl]amino}propyl]-2-methyl-N-[(3R)-2-oxoazepan-3-yl]biphenyl-4-carboxamide hydrochloride] | 0.08
3 | Cc1cc(C(=O)NC(CN(C)C)CN(C)C)ccc1-c1ccc(C[C@H](NC(=O)[C@H]2CC[C@H](CN)CC2)C(=O)Nc2ccc(-c3nn[nH]n3)cc2)cc1 [Example 66, 4′-[(2S)-2-({[trans-4-(Aminomethyl)cyclohexyl]carbonyl}amino)-3-oxo-3-{[4-(2H-tetrazol-5-yl)phenyl]amino}propyl]-N-[1,3-bis(dimethylamino)propan-2-yl]-2-methylbiphenyl-4-carboxamide hydrochloride] | 0.32
4 | COc1cc(C(=O)NC2CCC(N(C)C)CC2)ccc1-c1ccc(C[C@H](NC(=O)[C@H]2CC[C@H](CN)CC2)C(=O)Nc2ccc(-c3nn[nH]n3)cc2)cc1 (stereo partly drawn) [Example 67, 4′-[(2S)-2-({[trans-4-(Aminomethyl)cyclohexyl]carbonyl}amino)-3-oxo-3-{[4-(2H-tetrazol-5-yl)phenyl]amino}propyl]-N-[4-(dimethylamino)cyclohexyl]-2-methoxybiphenyl-4-carboxamide hydrochloride] | 0.12
5 | Cc1cc(C(=O)NC2CCC(N(C)C)CC2)ccc1-c1ccc(C[C@H](NC(=O)[C@H]2CC[C@H](CN)CC2)C(=O)Nc2ccc3c(=O)[nH][nH]c3c2)cc1 (stereo partly drawn) [Example 68, 4′-{(2S)-2-({[trans-4-(Aminomethyl)cyclohexyl]carbonyl}amino)-3-oxo-3-[(3-oxo-2,3-dihydro-1H-indazol-6-yl)amino]propyl}-N-[4-(dimethylamino)cyclohexyl]-2-methylbiphenyl-4-carboxamide hydrochloride] | 0.15
6 | Cc1cc(C(=O)N2CCS(=O)(=O)CC2)ccc1-c1ccc(C[C@H](NC(=O)[C@H]2CC[C@H](CN)CC2)C(=O)Nc2ccc(-c3nn[nH]n3)cc2)cc1 [Example 69, trans-4-(Aminomethyl)-N-[(2S)-3-{4′-[(1,1-dioxidothiomorpholin-4-yl)carbonyl]-2′-methyl-biphenyl-4-yl}-1-oxo-1-{[4-(2H-tetrazol-5-yl)phenyl]amino}propan-2-yl]cyclohexanecarboxamide hydrochloride] | 0.22
7 | Cc1cc(C(=O)NC2CCC(N(C)C)CC2)ccc1-c1ccc(C[C@H](NC(=O)[C@H]2CC[C@H](CN)CC2)C(=O)Nc2ccc(-c3nn[nH]n3)cc2)cc1 (stereo partly drawn) [Example 70, 4′-[(2S)-2-({[trans-4-(Aminomethyl)cyclohexyl]carbonyl}amino)-3-oxo-3-{[4-(2H-tetrazol-5-yl)phenyl]amino}propyl]-N-[4-(dimethylamino)cyclohexyl]-2-methylbiphenyl-4-carboxamide hydrochloride] | 0.08
8 | Cc1cc(C(=O)N[C@H]2CCCN(C)C2)ccc1-c1ccc(C[C@H](NC(=O)[C@H]2CC[C@H](CN)CC2)C(=O)Nc2ccc(-c3nn[nH]n3)cc2)cc1 [Example 73, 4′-[(2S)-2-({[trans-4-(Aminomethyl)cyclohexyl]carbonyl}amino)-3-oxo-3-{[4-(2H-tetrazol-5-yl)phenyl]amino}propyl]-2-methyl-N-[(3S)-1-methylpiperidin-3-yl]biphenyl-4-carboxamide hydrochloride] | 0.22
9 | Cc1cc(C(=O)NC2CCCNC2=O)ccc1-c1ccc(C[C@H](NC(=O)[C@H]2CC[C@H](CN)CC2)C(=O)Nc2ccc(-c3nc(C(F)F)n[nH]3)cc2)cc1 (stereo partly drawn) [Example 74, 4′-[(2S)-2-({[trans-4-(Aminomethyl)cyclohexyl]carbonyl}amino)-3-({4-[3-(difluoromethyl)-1H-1,2,4-triazol-5-yl]phenyl}amino)-3-oxopropyl]-2-methyl-N-(2-oxopiperidin-3-yl)biphenyl-4-carboxamide hydrochloride] | 0.09
10 | Cc1cc(C(=O)N[C@@H]2CCNC2)ccc1-c1ccc(C[C@H](NC(=O)[C@H]2CC[C@H](CN)CC2)C(=O)Nc2ccc(-c3nc(C(F)(F)C(F)(F)F)n[nH]3)cc2)cc1 [Example 75, 4′-[(2S)-2-({[trans-4-(Aminomethyl)cyclohexyl]carbonyl}amino)-3-oxo-3-({4-[3-(pentafluoroethyl)-1H-1,2,4-triazol-5-yl]phenyl}amino)propyl]-2-methyl-N-[(3R)-pyrrolidin-3-yl]biphenyl-4-carboxamide hydrochloride] | 0.06
11 | Cc1cc(C(=O)NC2CCC(O)C2)ccc1-c1ccc(CC(NC(=O)C2CCC(CN)CC2)C(=O)Nc2ccc(-c3nnn[nH]3)c(F)c2)cc1 [Example 92, 4′-[(2S)-2-({[trans-4-(Aminomethyl)cyclohexyl]carbonyl}amino)-3-{[3-fluoro-4-(2H-tetrazol-5-yl)phenyl]amino}-3-oxopropyl]-N-(3-hydroxycyclopentyl)-2-methylbiphenyl-4-carboxamide hydrochloride] | 0.15

Reference: US20160272617A1, “SUBSTITUTED PHENYLALANINE DERIVATIVES” (BAYER PHARMA AKTIENGESELLSCHAFT, priority 2013, published 2016)
